In all, about 2,200 compounds went through this assay and fewer than 10 were called active. The list shows a part of the results. Where no call is shown, the source marks the result inconclusive.

For this experiment, the target named is GTPase KRas (Homo sapiens) (UniProt P01116). Put plainly: Covalent labelling of cysteine mutants by fragments, read by mass spectrometry (AID 2202238). Also noted: protein at 5 µM with 500 µM competing thiol for 1.5 h. The note with it: KRAS G12D cysteine mutants, disulfide tethering, MALDI-TOF labeling; stronger effect = higher value; H27C mutant labeling; fragment at 500 µM.
UniProt P01116, sequence (P01116 whole entry, looked up, the tested form may be a part): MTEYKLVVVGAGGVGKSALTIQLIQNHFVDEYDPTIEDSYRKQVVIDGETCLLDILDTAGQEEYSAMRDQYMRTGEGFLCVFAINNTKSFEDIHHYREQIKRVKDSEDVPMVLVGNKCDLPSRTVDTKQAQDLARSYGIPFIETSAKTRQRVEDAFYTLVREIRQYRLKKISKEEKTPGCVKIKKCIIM
The compound `Cc1nnc(N2CCN(C(=O)CCS)CC2)s1` registered a percent labeling of 36.1%.

`O=C(CCS)NCC1(c2ccncc2F)CC1` had a percent labeling of 29.5%.

The compound `O=C(NCCS)c1cnc2nc[nH]c2c1` displayed a percent labeling of 58.6%.

For `CN(CC(=O)NCCS)C(=O)c1cnn(C)c1-n1cccc1`, the percent labeling worked out at 33.6%.

For `Cc1nc2c(s1)CCCC2CNC(=O)CCS` (configuration not stated), the percent labeling was 38.5%.

In turn, `N#Cc1ccc(N2CCC(C(=O)NCCS)CC2)nc1` came in with a percent labeling of 41%.

`O=C(CCS)N1CCCC1c1c(F)cccc1F` (configuration not stated): the percent labeling turned out to be 36.4%.

Compound `O=C(CCS)NC1CCCc2c1cnn2-c1ccccc1F` (configuration not stated) registered a percent labeling of 45.9%.

In turn, `O=C(NCCS)c1cccnc1Cl` had a percent labeling of 45.3%.

Consider `O=C(CCS)NC1(c2ccc(F)cn2)CC1`, for which the percent labeling was found to be 38.7%.

Compound `COc1ccc(-c2csc(CCNC(=O)CCS)n2)cc1` returned a percent labeling of 30.9%.

In turn, `O=C1C[C@H](C(=O)NCCS)C[C@H](c2ccccc2)N1` showed a percent labeling of 42.3%.

`O=C(Cc1ccccc1C(=O)NCCS)Nc1cccnc1`: the percent labeling came to 34.5%.

For `Cc1cc(C)c2c(OCC(=O)NCCS)nn(C)c2n1`, the percent labeling was 35.5%.

Turning to `O=C(NCCS)C1(c2cc(Cl)ccc2F)CCC1`, the percent labeling is 28.7%.

In turn, `CC(=O)NCC1(CC(=O)NCCS)CCCCC1` had a percent labeling of 32.4%.

For the compound `Cc1cc(C(=O)NCCS)nc2[nH]c(=O)[nH]c(=O)c12`, the percent labeling was found to be 34.1%.

Consider `Cc1nn(CC(F)F)cc1NC(=O)CCS`, for which the percent labeling was determined as 37.3%.

The compound `Cc1ccc(-c2csc(C(=O)NCCS)c2-n2cccc2)cc1` came in with a percent labeling of 24.6%.

The compound `CC(C)NC(=O)c1cnn2c1CC(CNC(=O)CCS)CC2` (configuration not stated) returned a percent labeling of 35.9%.

`O=C(CCS)NC(c1ccccc1)c1ccccc1` showed a percent labeling of 30.7%.

For the compound `O=C(NCCS)c1ccc(-c2cccc(OC(F)(F)F)c2)s1`, the percent labeling is 5.2%.

With `O=C(NCCS)c1ccc(F)cc1Cl`, the percent labeling is 39.9%.

`O=C(NCCS)c1cccc(I)c1` returned a percent labeling of 38.8%.

`O=C(CCS)N1CCC(c2cc(=O)[nH]c(=O)[nH]2)C1` (configuration not stated) registered a percent labeling of 35.5%.

With `Cc1cnc(C(C)(C)NC(=O)CCS)s1`, the percent labeling stood at 33.2%.

In turn, `O=C(NCCS)C1CC(OCc2ccccc2)C1` (configuration not stated) had a percent labeling of 31.2%.

For the compound `Cn1[nH]c(=O)c2c(C(=O)NCCS)cc(C3CC3)nc21`, the percent labeling came to 23%.

`O=C(CCS)Nc1cc(Cl)c2c(c1)OCCO2` had a percent labeling of 32.6%.

In the case of `O=C(NCCS)C(=O)c1c[nH]c2ccccc12`, the percent labeling turned out to be 19.1%.

`O=C(CCS)NCC1c2ccccc2C(=O)N1Cc1ccccc1` (configuration not stated) displayed a percent labeling of 25.9%.

`Cc1ccc(-c2nc(C(=O)NCCS)cs2)n1C` came in with a percent labeling of 23.4%.

`CCN(CC1CCC(C(=O)OC)CC1)C(=O)CCS` (configuration not stated) came in with a percent labeling of 42.2%.

On to `Nc1ncnc2c1ncn2CCC(=O)NCCS`, for which the percent labeling came to 25.6%.

Compound `O=C(CCS)NC1Cc2cc(Br)cnc2NC1=O` (configuration not stated) came in with a percent labeling of 47.6%.

As for `CC(C)Oc1cc(CN(C(=O)CCS)C2CC2)ccn1`, the percent labeling amounted to 39.2%.

As for `Cc1cc(=O)[nH]c2cc(C(=O)NCCS)ccc12`, the percent labeling was 28.8%.

Regarding `O=C(NCCS)c1cc2ccccc2cc1O`, the percent labeling was 23%.

Turning to `Cn1c(-c2ccccc2)c(C(=O)NCCS)c2ccccc21`, the percent labeling was found to be 37.3%.

For the compound `O=C(NCCS)C1CC(O)CN1C(=O)Cc1ccccc1F` (configuration not stated), the percent labeling came to 31.8%.

`CC(C)(C)OC(=O)NC1CCC2(CC1)CN(C(=O)CCS)CCO2` (configuration not stated): the percent labeling was determined as 30.1%.

Turning to `Cc1ccc(S(=O)(=O)C2CCN(C(=O)CCS)CC2)cc1`, the percent labeling worked out at 44.2%.

Take `O=C(CCS)NC1CCN(CC(=O)N2CCOCC2)CC1`: the percent labeling came to 18.3%.

In the case of `Cc1cc(=O)n(CCNC(=O)CCS)cn1`, the percent labeling came to 24.5%.

`O=C(COc1ccc2c3c(c(=O)oc2c1)CCC3)NCCS`: the percent labeling was found to be 21.7%.

Consider `Cc1cc(C2(NC(=O)CCS)CCOCC2)on1`, for which the percent labeling was 40.2%.

Consider `O=C(NCCS)c1cn2c(n1)CCCC2`, for which the percent labeling came to 37.7%.

As for `O=C(Cc1c(Cl)cccc1Cl)NCCS`, the percent labeling was found to be 33%.

Regarding `O=C(CCS)NCc1ccc2c(c1)C(=O)NC2`, the percent labeling came out at 34.3%.

`O=C(CCS)Nc1cccc(-c2ncc3n2CCCC3)c1` gave a percent labeling of 49.1%.

For `O=C(CCS)Nc1cccn(CCCn2ccnc2)c1=O`, the percent labeling was determined as 44.6%.

The compound `Cc1cc(NC(=O)C2CC2)sc1C(=O)NCCS` registered a percent labeling of 38%.

As for `O=C(CCc1ccc(-c2ccccc2)o1)NCCS`, the percent labeling turned out to be 19.9%.

Consider `Cc1ccc(-c2nc(CC(=O)NCCS)cs2)cc1`, for which the percent labeling was determined as 26.7%.

Consider `O=C(CCCn1ccc2cc(Cl)ccc21)NCCS`, for which the percent labeling worked out at 23.1%.

In turn, `O=C(NCCS)c1cc(Cl)ccc1-n1cnnn1` returned a percent labeling of 31.7%.

Compound `CC1(C)Cc2cccc(NC(=O)CCS)c2O1` yielded a percent labeling of 35.9%.

In turn, `COC(=O)c1ccc(CN(C)C(=O)CCS)nc1` yielded a percent labeling of 32.4%.

On to `O=C(N[C@@H](Cc1cnc[nH]1)C(=O)NCCS)C1CCCCC1`, for which the percent labeling turned out to be 31.5%.

For the compound `Cc1cc(C(=O)NCCS)cc(NCC(F)(F)F)n1`, the percent labeling turned out to be 47.1%.

`CN1CCC(n2nccc2NC(=O)CCS)CC1` returned a percent labeling of 40%.

Regarding `O=C(NCCS)c1ccc2scc(Br)c2c1`, the percent labeling came to 39.5%.

`O=C(CCS)NC1(c2ccc(F)cc2)CCOCC1` displayed a percent labeling of 39.6%.

Take `O=C(CCS)N1CCC(N2CC(O)C2)CC1`: the percent labeling is 40.3%.

The compound `Cc1c(C2CC2)nc2ccc(Br)cc2c1C(=O)NCCS` yielded a percent labeling of 19.2%.

In turn, `O=C(CCS)N1CCOc2c(Cl)cc(Br)cc2C1` yielded a percent labeling of 28.6%.

Consider `CCN1CCC(N(C)C(=O)CCC(=O)NCCS)CC1`, for which the percent labeling was determined as 39.3%.

`O=C(CCS)NCC1CCC(c2ccccc2)CC1` (configuration not stated): the percent labeling came to 27.5%.

Consider `CC(C)c1nc(Cn2cc(C(=O)NCCS)ccc2=O)cs1`, for which the percent labeling came out at 31.2%.

`Cc1nn(Cc2ccccc2)c2ncc(NC(=O)CCS)cc12`: the percent labeling worked out at 29.3%.

`CNC(=O)Cn1ccc(NC(=O)CCS)n1`: the percent labeling was determined as 36.6%.

In turn, `CN(C(=O)CCS)C1CCN(c2ccccc2)CC1` came in with a percent labeling of 33.1%.
